# The supplement of paper PMC8728848
# The list shows a part of the results.
# B1: NakA (Mycobacterium tuberculosum) (protein)
# chain: SVVKPTKVTVFSPDGGADNPGEADLAIDGNPATSWKTDIYTDPVPFPSFKNGVGLMLQLPQATVVGTVAIDVASTGTKVEIRSASTPTPATLEDTAVLTSATALRPGHNTISVEAAAPTSNLLVWISTLGTTDGKSQADISEITIYAASD
# How the values were obtained:
# Assay in all cases: glycan array binding signal (z-score within array); higher = stronger binding
# Details in all cases: glycan notation: IUPAC condensed, linker removed
# [1] = target: Gal6S(b1-4)Glc
# Method in brief: (§1)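 The binding signal is a Z-score computed within each array. Data were drawn from 3228 arrays in the Consortium for Functional Glycomics database, restricted to those with a known protein sequence. Scores were averaged over arrays of the same protein sequence at different concentrations or buffers, and over linkers, and negative values can be taken as non-binding.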
# [2] = target: Gal6S(b1-4)Glc6S
# Method in brief: as §1
# [3] = target: Gal6S(b1-4)GlcNAc
# Method in brief: as §1
# [4] = target: GalNAc(a1-3)Gal
# Method in brief: as §1
# [5] = target: GalNAc(a1-3)GalNAc
# Method in brief: as §1
# [6] = target: GalNAc(b1-3)Gal(a1-4)Gal(b1-4)GlcNAc
# Method in brief: as §1
# [7] = target: GalNAc(b1-4)GlcNAc
# Method in brief: as §1
# [8] = target: Glc(a1-4)Glc
# Method in brief: as §1
# [9] = target: Glc(a1-6)Glc(a1-6)Glc
# Method in brief: as §1
# [10] = target: Glc(b1-4)Glc
# Method in brief: as §1
# [11] = target: Glc(b1-6)Glc
# Method in brief: as §1
# [12] = target: GlcA(b1-3)Gal
# Method in brief: as §1
# [13] = target: GlcA(b1-6)Gal
# Method in brief: as §1
# [14] = target: GlcNAc(a1-3)Gal(b1-4)GlcNAc
# Method in brief: as §1
# [15] = target: GlcNAc(a1-6)Gal(b1-4)GlcNAc
# Method in brief: as §1
# [16] = target: GlcNAc(b1-2)Gal(b1-3)GlcNAc
# Method in brief: as §1
# [17] = target: GlcNAc(b1-2)Man(a1-3)[GlcNAc(b1-2)Man(a1-6)]Man(b1-4)GlcNAc(b1-4)GlcNAc
# Method in brief: as §1
# [18] = target: GlcNAc(b1-3)Gal
# Method in brief: as §1
# [19] = target: GlcNAc(b1-3)Gal(b1-3)GalNAc
# Method in brief: as §1
# [20] = target: GlcNAc(b1-3)Gal(b1-4)Glc
# Method in brief: as §1
# [21] = target: GlcNAc(b1-3)Gal(b1-4)GlcNAc
# Method in brief: as §1
# [22] = target: GlcNAc(b1-3)Gal(b1-4)GlcNAc(b1-3)Gal(b1-4)GlcNAc
# Method in brief: as §1
# [23] = target: GlcNAc(b1-3)GalNAc
# Method in brief: as §1
# [24] = target: GlcNAc(b1-3)[GlcNAc(b1-4)][GlcNAc(b1-6)]GlcNAc
# Method in brief: as §1
# [25] = target: GlcNAc(b1-3)[GlcNAc(b1-6)]Gal(b1-4)GlcNAc
# Method in brief: as §1
# [26] = target: GlcNAc(b1-3)[GlcNAc(b1-6)]GlcNAc
# Method in brief: as §1
# [27] = target: GlcNAc(b1-4)Gal(b1-4)GlcNAc
# Method in brief: as §1
# [28] = target: GlcNAc(b1-4)GlcNAc(b1-4)GlcNAc
# Method in brief: as §1
# [29] = target: GlcNAc(b1-4)GlcNAc(b1-4)GlcNAc(b1-4)GlcNAc(b1-4)GlcNAc
# Method in brief: as §1
# [30] = target: GlcNAc(b1-4)GlcNAc(b1-4)GlcNAc(b1-4)GlcNAc(b1-4)GlcNAc(b1-4)GlcNAc
# Method in brief: as §1
# [31] = target: GlcNAc(b1-4)[GlcNAc(b1-6)]GalNAc
# Method in brief: as §1
# [32] = target: GlcNAc(b1-6)Gal(b1-4)GlcNAc
# Method in brief: as §1
# [33] = target: GlcNAc(b1-6)GalNAc
# Method in brief: as §1
# [34] = target: Kdn(a2-3)Gal(b1-3)GlcNAc
# Method in brief: as §1
# [35] = target: Kdn(a2-3)Gal(b1-4)GlcNAc
# Method in brief: as §1
# [36] = target: Man(a1-2)Man(a1-2)Man(a1-3)Man
# Method in brief: as §1
# [37] = target: Man(a1-2)Man(a1-2)Man(a1-3)[Man(a1-2)Man(a1-3)[Man(a1-2)Man(a1-6)]Man(a1-6)]Man(b1-4)GlcNAc(b1-4)GlcNAc
# Method in brief: as §1
# [38] = target: Man(a1-2)Man(a1-2)Man(a1-3)[Man(a1-2)Man(a1-6)[Man(a1-3)]Man(a1-6)]Man(b1-4)GlcNAc(b1-4)GlcNAc
# Method in brief: as §1
# [39] = target: Man(a1-2)Man(a1-2)Man(a1-6)[Man(a1-3)]Man
# Method in brief: as §1
# [40] = target: Man(a1-2)Man(a1-3)Man
# Method in brief: as §1
# [41] = target: Man(a1-2)Man(a1-3)[Man(a1-2)Man(a1-6)]Man
# Method in brief: as §1
# [42] = target: Man(a1-2)Man(a1-3)[Man(a1-3)[Man(a1-6)]Man(a1-6)]Man(b1-4)GlcNAc(b1-4)GlcNAc
# Method in brief: as §1
# [43] = target: Man(a1-2)Man(a1-3)[Man(a1-6)]Man(a1-6)[Man(a1-2)Man(a1-3)]Man(b1-4)GlcNAc(b1-4)GlcNAc
# Method in brief: as §1
# [44] = target: Man(a1-3)[Man(a1-6)]Man
# Method in brief: as §1
# [45] = target: Man(a1-3)[Man(a1-6)]Man(a1-6)[Man(a1-3)]Man(b1-4)GlcNAc(b1-4)GlcNAc
# Method in brief: as §1
# [46] = target: Man(a1-3)[Man(a1-6)]Man(b1-4)GlcNAc(b1-4)GlcNAc
# Method in brief: as §1
# [47] = target: Man(b1-4)GlcNAc
# Method in brief: as §1
# [48] = target: Neu5Ac(a2-3)Gal
# Method in brief: as §1
# [49] = target: Neu5Ac(a2-3)Gal(b1-3)GalNAc
# Method in brief: as §1
binder,measurement,setting,value
B1,glycan array binding signal (z-score),[1],-0.278
same,glycan array binding signal (z-score),[2],-0.213
same,glycan array binding signal (z-score),[3],-0.327
same,glycan array binding signal (z-score),[4],-0.414
same,glycan array binding signal (z-score),[5],0.081
same,glycan array binding signal (z-score),[6],-0.418
same,glycan array binding signal (z-score),[7],-0.305
same,glycan array binding signal (z-score),[8],-0.157
same,glycan array binding signal (z-score),[9],-0.203
same,glycan array binding signal (z-score),[10],-0.512
same,glycan array binding signal (z-score),[11],0.014
same,glycan array binding signal (z-score),[12],0.062
same,glycan array binding signal (z-score),[13],-0.548
same,glycan array binding signal (z-score),[14],-0.002
same,glycan array binding signal (z-score),[15],0.447
same,glycan array binding signal (z-score),[16],-0.263
same,glycan array binding signal (z-score),[17],-0.45
same,glycan array binding signal (z-score),[18],-0.245
same,glycan array binding signal (z-score),[19],-0.169
same,glycan array binding signal (z-score),[20],-0.134
same,glycan array binding signal (z-score),[21],-0.606
same,glycan array binding signal (z-score),[22],-0.586
same,glycan array binding signal (z-score),[23],-0.001
same,glycan array binding signal (z-score),[24],0.569
same,glycan array binding signal (z-score),[25],-0.192
same,glycan array binding signal (z-score),[26],0.162
same,glycan array binding signal (z-score),[27],-0.025
same,glycan array binding signal (z-score),[28],-0.309
same,glycan array binding signal (z-score),[29],0.64
same,glycan array binding signal (z-score),[30],-0.197
same,glycan array binding signal (z-score),[31],1.16
same,glycan array binding signal (z-score),[32],-0.407
same,glycan array binding signal (z-score),[33],-0.466
same,glycan array binding signal (z-score),[34],-0.419
same,glycan array binding signal (z-score),[35],-0.507
same,glycan array binding signal (z-score),[36],-0.116
same,glycan array binding signal (z-score),[37],-0.445
same,glycan array binding signal (z-score),[38],-0.267
same,glycan array binding signal (z-score),[39],-0.119
same,glycan array binding signal (z-score),[40],-0.127
same,glycan array binding signal (z-score),[41],-0.307
same,glycan array binding signal (z-score),[42],-0.433
same,glycan array binding signal (z-score),[43],-0.255
same,glycan array binding signal (z-score),[44],-0.082
same,glycan array binding signal (z-score),[45],-0.475
same,glycan array binding signal (z-score),[46],-0.359
same,glycan array binding signal (z-score),[47],-0.48
same,glycan array binding signal (z-score),[48],-0.526
same,glycan array binding signal (z-score),[49],-0.515
